Assay results published in paper PMC9363427, “The SWI/SNF chromatin remodeling factor DPF3 regulates metastasis of ccRCC by modulating TGF-β signaling” (Nature Communications, 2022).
Like-named read-outs stand apart in the source and are kept apart here. Results are given in words; binding and its absence hold for the method and conditions named. For part of these data: In cells and extracts the contact can be indirect. Some results given as binding are weak or reduced against the parent protein; the word gives no strength. For part of these data: Where a sequence is shown, tags or fusion partners need not be part of it. Values belong to the molecule of their own block, whether it stands above or below them.

Chains of the proteins cited; added tags and fusions are not shown.
UniProt Q09472: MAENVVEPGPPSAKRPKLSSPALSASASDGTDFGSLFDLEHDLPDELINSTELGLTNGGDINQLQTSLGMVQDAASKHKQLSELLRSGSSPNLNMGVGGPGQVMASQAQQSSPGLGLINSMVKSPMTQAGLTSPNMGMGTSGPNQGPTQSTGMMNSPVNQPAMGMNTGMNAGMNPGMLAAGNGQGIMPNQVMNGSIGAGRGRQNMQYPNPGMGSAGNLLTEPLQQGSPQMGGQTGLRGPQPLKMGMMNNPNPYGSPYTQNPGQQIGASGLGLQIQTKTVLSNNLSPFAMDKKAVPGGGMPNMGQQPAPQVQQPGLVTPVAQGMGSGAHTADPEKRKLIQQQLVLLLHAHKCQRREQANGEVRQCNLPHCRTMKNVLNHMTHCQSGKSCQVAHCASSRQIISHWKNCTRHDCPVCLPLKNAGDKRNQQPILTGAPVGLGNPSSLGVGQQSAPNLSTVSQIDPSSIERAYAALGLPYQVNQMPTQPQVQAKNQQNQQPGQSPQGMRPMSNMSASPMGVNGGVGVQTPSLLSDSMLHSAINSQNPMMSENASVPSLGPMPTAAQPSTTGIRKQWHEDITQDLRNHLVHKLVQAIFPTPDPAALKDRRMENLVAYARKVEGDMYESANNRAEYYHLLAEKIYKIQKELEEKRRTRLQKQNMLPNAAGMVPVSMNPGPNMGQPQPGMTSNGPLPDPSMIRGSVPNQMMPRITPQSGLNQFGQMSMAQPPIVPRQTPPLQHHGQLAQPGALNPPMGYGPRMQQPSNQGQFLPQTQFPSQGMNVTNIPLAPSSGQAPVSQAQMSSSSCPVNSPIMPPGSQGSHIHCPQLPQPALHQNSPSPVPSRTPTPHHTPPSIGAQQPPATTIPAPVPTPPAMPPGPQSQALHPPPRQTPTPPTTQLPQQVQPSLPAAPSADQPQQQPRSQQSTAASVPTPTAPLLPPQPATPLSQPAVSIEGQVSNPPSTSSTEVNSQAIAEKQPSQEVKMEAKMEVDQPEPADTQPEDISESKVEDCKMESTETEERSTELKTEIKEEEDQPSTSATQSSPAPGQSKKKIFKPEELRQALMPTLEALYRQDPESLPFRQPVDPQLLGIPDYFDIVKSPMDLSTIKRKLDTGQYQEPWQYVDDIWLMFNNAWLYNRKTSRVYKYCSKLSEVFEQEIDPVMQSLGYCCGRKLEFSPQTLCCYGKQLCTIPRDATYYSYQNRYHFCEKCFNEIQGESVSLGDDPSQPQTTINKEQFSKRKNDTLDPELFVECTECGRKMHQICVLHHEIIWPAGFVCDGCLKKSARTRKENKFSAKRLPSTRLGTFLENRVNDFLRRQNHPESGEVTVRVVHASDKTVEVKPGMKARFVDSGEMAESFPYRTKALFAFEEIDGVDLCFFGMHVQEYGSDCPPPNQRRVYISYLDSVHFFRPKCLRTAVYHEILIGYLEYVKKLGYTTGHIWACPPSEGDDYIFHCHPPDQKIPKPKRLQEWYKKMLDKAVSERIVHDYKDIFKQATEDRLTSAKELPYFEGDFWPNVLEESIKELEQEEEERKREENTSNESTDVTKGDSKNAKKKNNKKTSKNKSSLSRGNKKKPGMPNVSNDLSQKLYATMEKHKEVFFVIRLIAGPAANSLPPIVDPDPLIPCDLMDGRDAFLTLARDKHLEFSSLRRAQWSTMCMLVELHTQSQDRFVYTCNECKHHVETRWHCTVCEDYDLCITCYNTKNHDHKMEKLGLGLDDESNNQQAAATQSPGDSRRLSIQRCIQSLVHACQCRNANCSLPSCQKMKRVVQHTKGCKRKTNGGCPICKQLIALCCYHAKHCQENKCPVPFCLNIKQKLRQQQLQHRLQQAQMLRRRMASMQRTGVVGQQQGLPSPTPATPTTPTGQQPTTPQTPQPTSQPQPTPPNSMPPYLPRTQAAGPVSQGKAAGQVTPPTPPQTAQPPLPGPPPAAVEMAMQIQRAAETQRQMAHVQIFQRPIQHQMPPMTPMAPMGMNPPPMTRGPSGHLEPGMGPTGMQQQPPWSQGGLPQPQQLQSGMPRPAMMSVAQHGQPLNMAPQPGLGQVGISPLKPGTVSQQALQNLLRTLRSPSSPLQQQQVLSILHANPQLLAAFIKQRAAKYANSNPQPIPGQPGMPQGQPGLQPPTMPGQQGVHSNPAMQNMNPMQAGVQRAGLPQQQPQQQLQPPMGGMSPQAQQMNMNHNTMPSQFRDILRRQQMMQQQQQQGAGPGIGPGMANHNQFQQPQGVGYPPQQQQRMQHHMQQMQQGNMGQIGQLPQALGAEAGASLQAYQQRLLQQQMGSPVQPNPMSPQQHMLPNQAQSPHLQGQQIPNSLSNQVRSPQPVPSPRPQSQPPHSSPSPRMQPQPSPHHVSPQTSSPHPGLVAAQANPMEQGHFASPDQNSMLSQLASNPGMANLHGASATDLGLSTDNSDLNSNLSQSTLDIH

Tests used:
[1] = biological target: T1, SMAD nuclear-interacting protein 1 (endogenous, 786-O) (human (endogenous in 786-O)) (UniProt Q8TAD8); experiment: co-IP; 786-O lysate (empty vector, HA-DPF3a or HA-DPF3b cells; also after SNIP1 knock-down by shRNA); IP with antibody against HA or SNIP1, 2-4 h at 4 °C, washed three times with TBST, immunoblotting
T1 sequence: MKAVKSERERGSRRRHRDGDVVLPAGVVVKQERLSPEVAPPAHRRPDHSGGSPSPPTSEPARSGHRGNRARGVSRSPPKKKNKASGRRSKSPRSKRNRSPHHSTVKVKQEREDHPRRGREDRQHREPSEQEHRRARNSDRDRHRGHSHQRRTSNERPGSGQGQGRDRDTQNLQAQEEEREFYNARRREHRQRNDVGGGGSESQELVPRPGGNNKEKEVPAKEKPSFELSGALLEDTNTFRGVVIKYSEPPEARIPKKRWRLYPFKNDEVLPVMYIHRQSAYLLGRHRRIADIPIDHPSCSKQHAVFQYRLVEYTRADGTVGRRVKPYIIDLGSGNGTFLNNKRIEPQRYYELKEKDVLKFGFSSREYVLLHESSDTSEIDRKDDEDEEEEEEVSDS

[2] = biological target: T1, SMAD nuclear-interacting protein 1 (endogenous, 786-O) (human (endogenous in 786-O)); experiment: as above; remark: listed apart in the source
[3] = biological target: T2, HA-tagged DPF3a (786-O cells) (human) (UniProt Q92784); experiment: as above
T2 sequence: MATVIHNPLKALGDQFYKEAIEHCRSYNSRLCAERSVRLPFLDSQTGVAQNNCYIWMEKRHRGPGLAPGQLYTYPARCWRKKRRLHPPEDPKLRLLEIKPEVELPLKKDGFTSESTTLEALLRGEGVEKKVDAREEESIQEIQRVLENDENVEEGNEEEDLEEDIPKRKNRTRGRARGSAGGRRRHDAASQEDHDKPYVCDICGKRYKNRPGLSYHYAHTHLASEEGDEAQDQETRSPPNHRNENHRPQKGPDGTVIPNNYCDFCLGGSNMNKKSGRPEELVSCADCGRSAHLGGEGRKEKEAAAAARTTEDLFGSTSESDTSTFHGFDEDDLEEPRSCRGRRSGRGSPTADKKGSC

[4] = biological target: HA-tagged DPF3b (786-O cells) (human) (UniProt Q92784); experiment: as above
[5] = biological target: T3, HA-tagged full-length DPF3a (HEK293T) (human) (UniProt Q92784); experiment: co-IP; HEK293T co-transfected with HA-tagged DPF3a constructs and Flag-tagged SNIP1 constructs; IP with anti-HA or anti-Flag magnetic beads, immunoblotting with anti-Flag or anti-HA
T3 sequence: T2 sequence

[6] = biological target: T4, Flag-tagged full-length SNIP1 (HEK293T) (human) (UniProt Q8TAD8); experiment: as above
T4 sequence: T1 sequence

[7] = biological target: T5, SMAD nuclear-interacting protein 1 (endogenous, 786-O) (human (endogenous in 786-O)), Q8TAD8; experiment: co-IP; 786-O lysate (empty vector, HA-DPF3a or HA-DPF3b cells; also after SNIP1 knock-down by shRNA); IP with antibody against HA or SNIP1, 2-4 h at 4 °C, washed three times with TBST, immunoblotting; details: remark: other sources report otherwise
T5 chain: T1 sequence

[8] = biological target: T6, GST-tagged DPF3a C-terminus (recombinant) (human) (UniProt Q92784); experiment: pull-down; 1.5 nmol GST-tagged DPF3a or SNIP1 construct on Glutathione Sepharose 4B beads, 2 nmol SNIP1 1-240 or full-length DPF3a added, 4 °C 2 h; 20 mM Tris pH 7.5, 100 mM NaCl, 5 mM β-mercaptomethanol; washes with 0.5% Triton X-100; SDS-PAGE; both purified
T6 sequence: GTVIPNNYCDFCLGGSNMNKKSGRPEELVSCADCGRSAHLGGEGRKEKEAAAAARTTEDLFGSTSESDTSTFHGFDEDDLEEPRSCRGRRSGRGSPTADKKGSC

[9] = biological target: T7, GST-tagged DPF3a N-terminus (recombinant) (human) (UniProt Q92784); experiment: as above
T7 sequence: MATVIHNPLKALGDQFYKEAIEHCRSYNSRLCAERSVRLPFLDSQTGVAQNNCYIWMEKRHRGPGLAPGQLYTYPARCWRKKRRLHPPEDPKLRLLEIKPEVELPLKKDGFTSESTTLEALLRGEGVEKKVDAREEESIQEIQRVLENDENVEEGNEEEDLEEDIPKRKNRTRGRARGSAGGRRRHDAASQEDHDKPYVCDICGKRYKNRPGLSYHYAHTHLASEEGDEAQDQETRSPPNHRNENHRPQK

binding [1]: binds
Molecule: p300 histone acetyltransferase (endogenous, 786-O) (from UniProt Q09472 1-2414)

binding [2]: binds
B1: Recombinant full-length DPF3a, GST tag removed (natural protein, human, UniProt Q92784-2 1-357, looked up)
chain: T2 sequence
notes: Zinc finger protein DPF3, isoform DPF3a, cDNA subcloned into pGEX-6P-1; Expressed with 0.1 mM ZnSO4; also called DPF3a-FL; full-length DPF3a proteins; source: E. coli BL21 (DE3)-RIL, purified (Glutathione Sepharose 4B, 3C protease, Superdex 200)

binding [3]: binds | binding [4]: no binding
B2: SMAD nuclear-interacting protein 1 (endogenous, 786-O) (protein, UniProt Q8TAD8 1-396)
chain: T1 sequence

binding [5]: binds
B3: Flag-tagged full-length SNIP1 (HEK293T) (protein, UniProt Q8TAD8 1-396)
chain: T1 sequence

binding [5]: no binding
B4: Flag-tagged SNIP1 C-terminus (a.a. 236-396) (HEK293T) (domain or fragment, UniProt Q8TAD8 236-396)
chain: TNTFRGVVIKYSEPPEARIPKKRWRLYPFKNDEVLPVMYIHRQSAYLLGRHRRIADIPIDHPSCSKQHAVFQYRLVEYTRADGTVGRRVKPYIIDLGSGNGTFLNNKRIEPQRYYELKEKDVLKFGFSSREYVLLHESSDTSEIDRKDDEDEEEEEEVSDS

binding [6]: binds
B5: HA-tagged DPF3a C-terminus (a.a. 254-357) (HEK293T) (domain or fragment, UniProt Q92784-2 254-357)
chain: T6 sequence

binding [6]: no binding
B6: HA-tagged DPF3a N-terminus (a.a. 1-250) (HEK293T) (domain or fragment, UniProt Q92784-2 1-250)
chain: T7 sequence

binding [7]: binds
B7: SMAD4 (endogenous, 786-O), Q13485 1-552 (protein)
chain: MDNMSITNTPTSNDACLSIVHSLMCHRQGGESETFAKRAIESLVKKLKEKKDELDSLITAITTNGAHPSKCVTIQRTLDGRLQVAGRKGFPHVIYARLWRWPDLHKNELKHVKYCQYAFDLKCDSVCVNPYHYERVVSPGIDLSGLTLQSNAPSSMMVKDEYVHDFEGQPSLSTEGHSIQTIQHPPSNRASTETYSTPALLAPSESNATSTANFPNIPVASTSQPASILGGSHSEGLLQIASGPQPGQQQNGFTGQPATYHHNSTTTWTGSRTAPYTPNLPHHQNGHLQHHPPMPPHPGHYWPVHNELAFQPPISNHPAPEYWCSIAYFEMDVQVGETFKVPSSCPIVTVDGYVDPSGGDRFCLGQLSNVHRTEAIERARLHIGKGVQLECKGEGDVWVRCLSDHAVFVQSYYLDREAGRAPGDAVHKIYPSAYIKVFDLRQCHRQMQQQAATAQAAAAAQAAAVAGNIPGPGSVGGIAPAISLSAAAGIGVDDLRRLCILRMSFVKGWGPDYPRQSIKETPCWIEIHLHRALQLLDEVLHTMPIADPQPLD

binding [8]: binds | binding [9]: binds
B8: Recombinant SNIP1 1-240, GST tag removed (domain or fragment, UniProt Q8TAD8 1-240)
chain: MKAVKSERERGSRRRHRDGDVVLPAGVVVKQERLSPEVAPPAHRRPDHSGGSPSPPTSEPARSGHRGNRARGVSRSPPKKKNKASGRRSKSPRSKRNRSPHHSTVKVKQEREDHPRRGREDRQHREPSEQEHRRARNSDRDRHRGHSHQRRTSNERPGSGQGQGRDRDTQNLQAQEEEREFYNARRREHRQRNDVGGGGSESQELVPRPGGNNKEKEVPAKEKPSFELSGALLEDTNTFR

binding [5]: binds
B9: Flag-tagged SNIP1 IDR (a.a. 1-240) (HEK293T) (domain or fragment, UniProt Q8TAD8 1-240)
chain: B8 chain
